# Laboratory results as given in publication PMC6919601, “Identification of Plasmodium dipeptidyl aminopeptidase allosteric inhibitors by high throughput screening” (PLoS ONE, 2019).
# In all, about 110,000 compounds went through this assay and about 230 (0.21%) showed an effect of 50% or more. The list shows a part of the results.
# Biological target: DPAP1 (Plasmodium falciparum, UniProt Q8IIJ9)
# Assay: primary screen, percent inhibition; read by cleavage of a fluorogenic dipeptide substrate; higher = more effect of the substance
# Parameters: species or system P. falciparum D10 trophozoite lysates; single well
# 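Further: 30 min substrate incubation versus DMSO and 10 µM JCP410 controls.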
# DPAP1, sequence (Q8IIJ9 whole entry, looked up): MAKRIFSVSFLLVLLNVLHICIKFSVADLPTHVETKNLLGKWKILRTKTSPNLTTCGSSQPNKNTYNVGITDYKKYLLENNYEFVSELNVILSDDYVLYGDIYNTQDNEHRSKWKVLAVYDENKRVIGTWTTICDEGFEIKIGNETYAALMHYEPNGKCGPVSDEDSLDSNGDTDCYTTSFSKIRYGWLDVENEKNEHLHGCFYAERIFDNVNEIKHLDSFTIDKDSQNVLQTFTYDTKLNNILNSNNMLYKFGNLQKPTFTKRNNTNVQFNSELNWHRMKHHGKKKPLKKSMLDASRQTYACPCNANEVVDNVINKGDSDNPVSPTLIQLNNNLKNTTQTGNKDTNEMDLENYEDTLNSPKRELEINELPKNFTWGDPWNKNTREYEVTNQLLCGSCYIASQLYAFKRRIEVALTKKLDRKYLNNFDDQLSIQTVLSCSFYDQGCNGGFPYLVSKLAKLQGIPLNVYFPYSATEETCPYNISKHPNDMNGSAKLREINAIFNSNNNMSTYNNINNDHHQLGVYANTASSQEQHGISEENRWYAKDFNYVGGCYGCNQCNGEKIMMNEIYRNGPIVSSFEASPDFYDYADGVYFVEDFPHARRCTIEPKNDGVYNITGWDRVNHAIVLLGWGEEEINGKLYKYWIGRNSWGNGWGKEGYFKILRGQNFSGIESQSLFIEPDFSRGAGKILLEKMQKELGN
row,SMILES,% Inhibition @ 10 uM [%]
1,Cc1nc(Nc2nc3ccccc3s2)nc2c1CCC2,-0.519
2,CCCc1cc(C(=O)Nc2cnn(Cc3ccccc3C)c2)no1,-3.12
3,O=C(c1ccco1)N1CCN(C(=O)c2nc(-c3cccc(F)c3)n3c2CCCCC3)CC1,1.13
4,Nc1nc(-c2ccccc2O)cc(C(F)(F)F)n1,2.21
5,CCOC(=O)C1=C(c2ccccc2)N=C(S)NC1c1cc(Br)c(OC)cc1OC (stereo not shown),6.23
6,OCC1CCCCN1Cc1cccc2ccccc12 (stereo not shown),4.55
7,CCOc1cc(/C=C2/S/C(=N/c3ccccc3)N(CC)C2=O)ccc1O,-7.22
8,Cc1ccc(-c2nc3s/c(=C\c4ccc(F)cc4)c(=O)n3n2)cc1,-3.33
9,c1cc(-c2nc3ccccc3o2)nc(-c2nc3ccccc3o2)c1,0.628
10,O=C(c1ccc(F)cc1)N1CCN(c2ccc(N3CCOCC3)nn2)CC1,2.34
11,COc1cccc(/C=C2\C(=O)C3CCN2CC3)c1,-2.8
12,Cc1c(C)c(C)c(C=C2C(=O)c3ccccc3C2=O)c(C)c1C,0.98
13,Cc1ccc(CNC(=O)Cn2ncc3c(C)n(Cc4ccccc4)c(C)c3c2=O)cc1,5.91
14,CCC(C)c1ccc(OCCn2cccc2/C=C2/C(=N)N3C=CSC3=NC2=O)cc1 (stereo not shown),0.275
15,Cc1ccc(CNC(=O)c2cc(-c3ccc(C)c(C)c3)[nH]n2)cc1,1.59
16,Clc1ccccc1-c1nc2ccccc2[nH]1,1.62
17,CCOC(=O)c1cnc2cc(Cl)c(C)cc2c1O,4.8
18,c1ccc(Cc2nn3c(-c4ccncc4)nnc3s2)cc1,5.82
19,COCCCNC(=O)N1CCC(CN2CCOCC2)CC1,3.7
20,Cc1ccc(CNS(=O)(=O)c2cc(-c3onc(C)c3C)ccc2C)cc1,-1.52
21,Cn1c(=O)[nH]c(=O)c2c1nc(N1CCN(c3ccc(F)cc3)CC1)n2Cc1ccccc1,-1.2
22,c1csc(-c2cnc3ccccc3n2)c1,-7.87
23,Cn1c(=O)c2ncn(CC(=O)NCCOCc3ccccc3Cl)c2n(C)c1=O,2.44
24,CC(C)(C)C1CCC(C(=O)Nc2ccc(C(=O)O)cc2)CC1 (stereo not shown),13.2
25,CC(=O)Nc1csc2ccccc12,-6.83

row,SMILES,% Inhibition @ 10 uM [%]
1,O=C1C2C3C=CC(CC3)C2C(=O)N1c1ccc(F)cc1 (stereo not shown),0.76
2,Cc1nn(-c2ccccc2)c(O)c1/C=N/c1ccc2[nH]c(O)nc2c1,1.01
3,CCS(=O)(=O)C1=NN2C(=N)/C(=C\c3cc(C)n(-c4ccc(C)cc4)c3C)C(=O)N=C2S1,0.208
4,Cc1ccc(NC(=O)C2CCCN2C(=O)OC(C)(C)C)cc1C (stereo not shown),1.57
5,N=C1/C(=C/c2cn(CCCOc3ccccc3Cl)c3ccccc23)C(=O)N=C2SC=CN12,-1.6
6,CCOC(=O)c1c(C)[nH]c(C)c1S(=O)(=O)N(CCOC)Cc1cccs1,0.359
7,Cc1ccccc1Cn1c(SCc2ccc(C(=O)NCCN(C)C)cc2)nc2ccncc21,-1.92
8,CCN1C(=O)N/C(=C/c2cn(CC)c3ccccc23)C1=O,-4.69
9,O=C(c1cccc(F)c1)N1Cc2ccccc2-c2ccccc2C1=O,0.565
10,CC(C)c1nc(NCc2ccccc2)c(C#N)c2c1CCCC2,0.193
11,CCCN1CCC(N2CCN(c3ccc(Cl)cc3)CC2)CC1,1.57
12,O=C1CCCC2=C1C(c1cccc(Br)c1)Nc1ccc3ncccc3c12 (stereo not shown),3.06
13,O=C1CN(S(=O)(=O)c2ccc3nc(O)ccc3c2)CC(=O)N1CCc1ccccc1,0.526
14,CCOCCCNc1nc2c(S(=O)(=O)c3c(C)cc(C)cc3C)nnn2c2ccccc12,-8.58
15,CCOc1ccc(C(=O)NC2CCCC2)cc1,2.36
16,Cc1ccc(C(=O)Nc2sc3c(c2C(=O)N2CCCCC2)CCC3)cc1,-0.67
17,Cc1cc(C)c(S(N)(=O)=O)c(C)c1,-7.42
18,O=C(O)CN1C(=O)/C(=C/c2ccc(Br)o2)SC1=S,1.27
19,O=C(O)c1cc(-c2ccccc2)nc2c(Cl)cccc12,-3.33
20,COc1cc(OC)cc(C(=O)N2CCC3(CC2)N=C(c2ccccc2)C(=O)N3)c1,6.99
21,CN(CC(=O)NC1CCCCC1)S(=O)(=O)c1ccc(Br)s1,0.559
22,CC(C)(C)OC(=O)N1CCC(c2c(C(=O)N3CCOCC3)cnn2-c2ccc(F)cc2F)CC1,-1.79
23,Cc1sc2nc(-c3cc(Cl)ccc3O)nc(O)c2c1C,-5.16
24,COC(=O)c1cc2occc2n1Cc1c(C)cc(C)cc1C,2.06
25,CCOC(=O)c1c(NC(=O)CNC2CCCCC2)sc2c1CCCC2,-0.415

row,SMILES,% Inhibition @ 10 uM [%]
1,O=c1cccc2n1CC1CC2CN(c2ccc3nnc(-c4ccccc4)n3n2)C1 (stereo not shown),-4.85
2,Oc1nc2cc(Br)cnc2[nH]1,4.08
3,Cc1ccc(Cl)cc1NC(=O)CSc1nc2ccc(N)cc2s1,2.45
4,CC(C)C[C@H](NC(=O)N1CCN(c2ccc([N+](=O)[O-])cc2)CC1)C(=O)NCC#N,4.33
5,O=C(c1ccc(F)cc1)c1ccc(F)cc1,-5.07
6,COc1ccccc1N1CCN(Cc2ccc(F)cc2F)CC1,1.55
7,Cc1ccccc1N1C(=O)C(Cl)=C(N2CCCCC2)C1=O,-0.661
8,COc1ccc(CSc2nnnn2-c2ccc(C(=O)O)cc2)cc1,-0.142
9,O=C(Cn1cnc2c(nnn2-c2ccc(F)cc2)c1=O)NCc1ccc2c(c1)OCO2,-7.71
10,COc1ccc(-c2cc3nc(C)c(CCC(=O)Nc4ccc(Cl)cn4)c(C)n3n2)c(OC)c1,1.26
11,COc1ccc(CCC(C)NCCCn2ccnc2)cc1 (stereo not shown),1.88
12,CC(Oc1ccc(F)cc1)C(=O)Nc1ccc(S(=O)(=O)Nc2nccs2)cc1 (stereo not shown),1.08
13,CC(=O)N1N=C(c2c(O)nc3ccc(Cl)cc3c2-c2ccccc2)CC1c1ccco1 (stereo not shown),4.01
14,O=c1oc2cc(S(=O)(=O)NCCO)ccc2c2ccc(S(=O)(=O)NCCO)cc12,-1.33
15,NCCSCC(=O)NC1C2CC3CC(C2)CC1C3 (stereo not shown),-9.49
16,CCOc1cc(CN2CCN(S(C)(=O)=O)CC2)ccc1OC,0.131
17,CCCOc1ccc(N2C(=O)CC(SCC(=O)Nc3ccc(Br)cc3)C2=O)cc1 (stereo not shown),11.2
18,O=C(Cn1c(C(Cl)(Cl)Cl)nc2ccccc2c1=O)c1ccccc1,17.1
19,CCCN(CCC)CCNC(=O)c1noc2c1COc1ccc(C)cc1-2,-4.07
20,Cc1ccc(-c2cc(C(=O)O)c3cc(Br)ccc3n2)o1,-1.1
21,CCOc1ccc(C2CC(c3c(O)cc(C)oc3=O)=Nc3ccccc3S2)cc1 (stereo not shown),7.12
22,O=C(O)c1ccc(NC(=O)c2cccc(N3C(=O)C4C5CCC(C5)C4C3=O)c2)cc1 (stereo not shown),-5.31
23,COc1cc(CNC2CCCCC2OC)cc(OC)c1 (stereo not shown),-1.54
24,Brc1cccc(CN2CCN(Cc3ccccc3)CC2)c1,-3.71
25,OC1CCCN(Cc2ccc(Cl)cc2)C1 (stereo not shown),-8.13

row,SMILES,% Inhibition @ 10 uM [%]
1,COC(=O)c1ccc(CSc2ccc(Oc3ccccc3)cc2)cc1,-5.47
2,CSc1nc(O)c2cnn(-c3ccc(Cl)cc3)c2n1,1.9
3,Cc1ccc(S(=O)(=O)N(CC(=O)Nc2ccc(C(N)=O)cc2)Cc2ccc(Cl)cc2)cc1,1.19
4,CC(=O)C1=C(O)C(=O)N(c2ccc(O)cc2)C1c1ccccc1 (stereo not shown),1
5,CC(=O)c1cccc(NC(=O)Nc2ccccc2)c1,-4.06
6,CC(C)C(NS(=O)(=O)c1ccc(/C=C/C(=O)O)cc1)C(=O)O (stereo not shown),-5.19
7,COc1ccc(S(=O)(=O)N(CC(=O)Nc2cc(Cl)ccc2C)c2ccc(F)cc2)cc1OC,1.94
8,Cn1c(NC(=O)C2CC3CCC2C3)cc(=O)n(C)c1=O (stereo not shown),-6.57
9,CCS(=O)(=O)c1ncc(Cl)c(C(=O)Nc2sc3c(c2C(N)=O)CCCC3)n1,-1.11
10,CCOC(=O)c1c(N)nn(C(=O)Cc2ccccc2)c1-c1ccc(OC)cc1,-1.05
11,COc1ccc(/C=C/C(=O)NCC(=O)N2CCC(N(C)C3CCCC3)CC2)cc1OC,-2.85
12,Cc1cc(C)c([N+](=O)[O-])c(C)c1-c1c(C#N)c(N)nc2c1CCCCC2,-0.292
13,C=CCNC(=O)C(=O)Nc1cccc(C(F)(F)F)c1,1.29
14,COC(=O)C1=C(C)N(CC(C)C)C(=O)/C1=C\c1ccc(Cl)c(Cl)c1,1.72
15,CCOCCCNC(=O)C(C)Sc1ccccc1 (stereo not shown),-2.21
16,Cc1ccc(CNC(=O)c2cnn3c(C)c(Cc4ccc(F)cc4Cl)c(C)nc23)cc1,1.16
17,C=CCn1c(SCc2csc(C)n2)nc2sc3c(c2c1=O)CCC3,2.38
18,COCCNC(=O)/C(C#N)=C/c1c(Oc2ccccc2Cl)nc2ccccn2c1=O,-6.23
19,CCOC(=O)C1=C(C)N=c2s/c(=C\c3cccnc3)c(=O)n2C1c1ccc2c(c1)OCO2 (stereo not shown),-1.37
20,CC1=CSC2=NC(C(F)(F)F)(C(F)(F)F)NC(=O)N12,-3.53
21,Cc1coc2cc3oc(=O)c(CC(=O)N4CCOCC4)c(C)c3cc12,4.13
22,O=C(CCC1CCCC1)Nc1ccccn1,-4.61
23,CC(=O)NCc1nc2ccccc2n1C(C)c1ccccc1 (stereo not shown),-4.07
24,CCS(=O)(=O)c1ncc(Cl)c(C(=O)N(Cc2ccc(OC)cc2)C2CCS(=O)(=O)C2)n1 (stereo not shown),-1.11
25,Cc1ccc2nc3c(cc(C(=O)NCc4cccnc4)c(=N)n3C3CCCCC3)c(=O)n2c1,1.97
